# Measurements: the supplement of paper PMC4604168 (melanoma cell lines)
# Some of the results follow. Most values come without repeats; read them as rough.
# Test system: WM3526
# Test: cell count relative to DMSO control; melanoma cells; higher = more viable cells
# Conditions: library dose: low library concentration; 72 h; first compound 0.4 µM
# 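Note: cell number obtained by counting DAPI-stained nuclei in high-throughput microscope images with image analysis software, screen run in 1,536-well plates.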
row,SMILES,cell count
1,C[C@@H](N)c1ccc(C(=O)Nc2ccnc3[nH]ccc23)cc1 + Cc1cc([N+](=O)[O-])ccc1NS(=O)(=O)c1cc(Cl)ccc1Cl [FH535] (partner dose 1 µM),115%
2,C[C@@H](N)c1ccc(C(=O)Nc2ccnc3[nH]ccc23)cc1 + c1cc(-c2cnn3cc(-c4ccc(OCCN5CCCCC5)cc4)cnc23)ccn1 [Dorsomorphin] (partner dose 0.4 µM),109%
3,CCCCCCCCCCCCCCCCCCOP(=O)([O-])OC1CC[N+](C)(C)CC1 [Perifosine] + O=C(/C=C/c1cccnc1)NCCCCC1CCN(C(=O)c2ccccc2)CC1 [FK866] (partner dose 0.01 µM),98.3%
4,Cn1sc(=O)n(Cc2ccccc2)c1=O + CN(NC(=O)CC(=O)NN(C)C(=S)c1ccccc1)C(=S)c1ccccc1 [STA4783] (partner dose 0.006 µM),84.2%
5,CCCCCCCCCCCCCCCCCCOP(=O)([O-])OC1CC[N+](C)(C)CC1 [Perifosine] + COc1cc2c(Oc3ccc4[nH]c(C)cc4c3F)ncnc2cc1OCCCN1CCCC1 [cediranib] (partner dose 0.4 µM),90.1%
6,C[C@@H](N)c1ccc(C(=O)Nc2ccnc3[nH]ccc23)cc1 + O=C(Nc1ccccc1)c1cc([N+](=O)[O-])ccc1Cl [GW9662] (partner dose 2 µM),129%
7,CCCCCCCCCCCCCCCCCCOP(=O)([O-])OC1CC[N+](C)(C)CC1 [Perifosine] + COc1ccc(Cl)c(Nc2nc3ccccc3nc2NS(=O)(=O)c2cccc(NC(=O)C(C)(C)N)c2)c1 [XL147] (partner dose 0.8 µM),105%
8,CCCCCCCCCCCCCCCCCCOP(=O)([O-])OC1CC[N+](C)(C)CC1 [Perifosine] + COC(=O)c1sccc1S(=O)(=O)Nc1ccc(Nc2ccccc2)cc1OC [GSK0660] (partner dose 1 µM),99%
9,Cn1sc(=O)n(Cc2ccccc2)c1=O + NC(=O)Nc1cc(-c2cccc(F)c2)sc1C(=O)N[C@H]1CCCNC1 [AZD7762] (partner dose 0.02 µM),80.9%
10,C[C@@H](N)c1ccc(C(=O)Nc2ccnc3[nH]ccc23)cc1 + CS(=O)(=O)CCNCc1ccc(-c2ccc3ncnc(Nc4ccc(OCc5cccc(F)c5)c(Cl)c4)c3c2)o1 [lapatinib] (partner dose 0.8 µM),100%
11,Cn1sc(=O)n(Cc2ccccc2)c1=O + C[C@]1(c2nc3c(C(N)=O)cccc3[nH]2)CCCN1 [Veliparib] (partner dose 1.4 µM),97.2%
12,C[C@@H](N)c1ccc(C(=O)Nc2ccnc3[nH]ccc23)cc1 + COc1ccc(Cl)c(Nc2nc3ccccc3nc2NS(=O)(=O)c2cccc(NC(=O)C(C)(C)N)c2)c1 [XL147] (partner dose 0.8 µM),131%
13,C[C@@H](N)c1ccc(C(=O)Nc2ccnc3[nH]ccc23)cc1 + Nc1nc(F)nc2c1ncn2[C@@H]1O[C@H](CO)[C@@H](O)[C@@H]1O [fludarabine] (partner dose 0.2 µM),31.2%
14,C[C@@H](N)c1ccc(C(=O)Nc2ccnc3[nH]ccc23)cc1 + Clc1ccc(Nc2nnc(Cc3ccncc3)c3ccccc23)cc1 [vatalanib] (partner dose 2 µM),146%
15,C[C@@H](N)c1ccc(C(=O)Nc2ccnc3[nH]ccc23)cc1 + O=C(O)C(=O)Nc1sc2c(c1C(=O)O)CCNC2 [TCS401] (partner dose 1.66667 µM),95.4%
16,Cn1sc(=O)n(Cc2ccccc2)c1=O + CO[C@H]1C[C@@H]2CC[C@@H](C)[C@@](O)(O2)C(=O)C(=O)N2CCCC[C@H]2C(=O)O[C@H]([C@H](C)C[C@@H]2CC[C@@H](OCCO)[C@H](OC)C2)CC(=O)[C@H](C)/C=C(\C)[C@@H](O)[C@@H](OC)C(=O)[C@H](C)C[C@H](C)/C=C/C=C/C=C/1C [everolimus] (partner dose 0.02 µM),82.3%
17,CCCCCCCCCCCCCCCCCCOP(=O)([O-])OC1CC[N+](C)(C)CC1 [Perifosine] + Cc1cc(N2CCOCC2)cc2[nH]c(-c3c(NC[C@@H](O)c4cccc(Cl)c4)cc[nH]c3=O)nc12 [BMS536924] (partner dose 0.2 µM),95.6%
18,C[C@@H](N)c1ccc(C(=O)Nc2ccnc3[nH]ccc23)cc1 + CC(=O)O[C@@]12CO[C@@H]1C[C@H](O)[C@@]1(C)C(=O)[C@H](O)C3=C(C)[C@@H](OC(=O)[C@H](O)[C@@H](NC(=O)OC(C)(C)C)c4ccccc4)C[C@@](O)([C@@H](OC(=O)c4ccccc4)[C@H]21)C3(C)C [Docetaxel] (partner dose 0.0001 µM),51.4%
